{"source": "the RNAGym collection of RNA variant scans (doi:10.1093/nar/gkz1192)", "parents": {"B1": {"name": "CPEB3 Ribozyme (parent)", "chain": "UAACAGGGGGCCACAGCAGAAGCGUUCACGUCGCAGCCCCUGUCAGAUUCUGGUGAAUCUGCGAAUUCUGCUGUAUAUCUC"}}, "note": "Read counts are not given, so values of variants with three or more changes are uncertain."}
{"variants_of": "B1", "assay": "self-cleavage, relative activity (ratio to wild type); higher = more cleavage; in vitro, sequencing", "method_in_brief": "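For each CPEB3 ribozyme variant, relative activity is its cleaved/total read fraction divided by the unmutated ribozyme's. Barcoded error-prone PCR libraries were transcribed by T7 RNA polymerase (5 hours, 37°C) and held in DNase I for 15 min before an EDTA stop, with cleavage occurring throughout. Template-switching reverse transcription and Illumina sequencing were used to read the RNAs. A 5-read minimum applied, and results are the mean of three batches.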"}
{"variant": "UAGCAGGGGGCCACAGCAGAGGCGUUCACGUCGCGGCCCCUGUCAGAUUCUGGUGAAUCUGCGAAUUCUGCUGUACAUCUC", "note": "[A3G A21G A35G U76C]", "self-cleavage": 1.17}
{"variant": "UAGCAGGGGGCCACAGCAGAGGCGUUCACGUCGCUGCCCCUGACAGAUUCUGGUGAAUCUGCGAAUUCUGCUGUAUAUCUC", "note": "[A3G A21G A35U U43A]", "self-cleavage": 0.18}
{"variant": "UAGCAGGGGGCCACAGCAGAGGCGUUCACGUCGCAGCCCCUGUCGGAUCCUGGAGAAUCUGCGAAUUCUGCUGUACAUCUC", "note": "[A3G A21G A45G U49C U54A U76C]", "self-cleavage": 0.08}
{"variant": "UAGCAGGGGGCCACAGCAGAGGCGUUCACGUCGCAGCCCCUGUCAGAUUCUGGUGAAUCUGCGAAUUCUGCUGUAUUUCUC", "note": "[A3G A21G A77U]", "self-cleavage": 0.81}
{"variant": "UAGCAGGGGGCCACAGCAGAGGCGUUUUCGUCUCAGCCCCUGUCAGAUUCUGGUGGAUCUGCGAAUUCUGCUGUAUAUCUC", "note": "[A3G A21G C27U A28U G33U A56G]", "self-cleavage": 0.29}
{"variant": "UAGCAGGGGGCCACAGCAGAGGCGUUCAUGUCGCUGCUCCUGUCAGAUUCUGGUGAACCUGCGAAUUCUGCUGUAUAUCUC", "note": "[A3G A21G C29U A35U C38U U58C]", "self-cleavage": 0.12}
{"variant": "UAGCAGGGGGCCACAGCAGAGGCGUUCACGUCGUAGCCCCUGUCAGAUCCUGGUGAAUCUGCGGAUUCUGCUGUAUAUCUC", "note": "[A3G A21G C34U U49C A64G]", "self-cleavage": 0.08}
{"variant": "UAGCAGGGGGCCACAGCAGAGGCGUUCACGUCGCAGCUCCUGUCAGAUUCCGGUGAACCUGCGAAUUCUGCCGUAUAUCCC", "note": "[A3G A21G C38U U51C U58C U72C U80C]", "self-cleavage": 0.09}
{"variant": "UAGCAGGGGGCCACAGCAGAGGCGCUCACGCCGCAGCCCCUGUCAGAUUCUGGUGAAUCUGCGGAUUCUGCUGUAUAUCUC", "note": "[A3G A21G U25C U31C A64G]", "self-cleavage": 0.13}
{"variant": "UAGCAGGGGGCCACAGCAGAGGCGCUCACGUCGCAGCCCCCGUCAGAUUCUGGCGAAUCUGCGAAUUCUGCUGUAUAUCUC", "note": "[A3G A21G U25C U41C U54C]", "self-cleavage": 0}
{"variant": "UAGCAGGGGGCCACAGCAGAGGCGGUCACGUCGCAGCCCCUGUCAGAUUCUGGUGAAUCUGCGUAUUCUGCUGUAUAUCUC", "note": "[A3G A21G U25G A64U]", "self-cleavage": 0.15}
{"variant": "UAGCAGGGGGCCACAGCAGAGGCGUACACGUCGCAGCACCUGUCAGAUUCUGGUGAACCUGCGAAUUCUGCUGUAUAUCUC", "note": "[A3G A21G U26A C38A U58C]", "self-cleavage": 0.38}
{"variant": "UAGCAGGGGGCCACAGCAGAGGCGUCCACGUCGCAGCCCCUGUCAGAUUCUGGUGAGUCUGCGAAUUCUGCUGUGUAUCUC", "note": "[A3G A21G U26C A57G A75G]", "self-cleavage": 0.34}
{"variant": "UAGCAGGGGGCCACAGCAGAGGCGUCCACGUCGCAGCCCCUGUCAGAUUCUGGUGAAUCUGCGAAUUCUGCCGUAUAUCUC", "note": "[A3G A21G U26C U72C]", "self-cleavage": 0.79}
{"variant": "UAGCAGGGGGCCACAGCAGAGGCGUGCACGUCGCAGCCCCUGUCAGAUUCUGGUGAAUCUGCGAAUCCUGCUGUAUAUCUC", "note": "[A3G A21G U26G U67C]", "self-cleavage": 0.14}
{"variant": "UAGCAGGGGGCCACAGCAGAGGCGUUCACGACGCAGCCCCUGUCAGGUUCUGGUGAACCUGCGAAUUCUGCUGUAUAUCUC", "note": "[A3G A21G U31A A47G U58C]", "self-cleavage": 0.19}
{"variant": "UAGCAGGGGGCCACAGCAGAGGCGUUCACGACGCAGCCCCUGUCAGAUUCUGGUGAAUCUGCGGAUUCUGCUGUAUAUCUC", "note": "[A3G A21G U31A A64G]", "self-cleavage": 0.22}
{"variant": "UAGCAGGGGGCCACAGCAGAGGCGUUCACGCCGCAGCCCCUGUCUGAUUCUGGUGAAUCUGCGGAUUCCGCCGUAUAUCUC", "note": "[A3G A21G U31C A45U A64G U69C U72C]", "self-cleavage": 0}
{"variant": "UAGCAGGGGGCCACAGCAGAGGCGUUCACGUCGCAGCCCCCGUCAGAUUCUGGUGAAGCUGCGAAUUCUGCUGUAUAUCUC", "note": "[A3G A21G U41C U58G]", "self-cleavage": 0.12}
{"variant": "UAGCAGGGGGCCACAGCAGAGGCGUUCACGUCGCAGCCCCUGUCAGAUACUGGUGAAUCUGCGAAUUCCGCUGUAUAUCUC", "note": "[A3G A21G U49A U69C]", "self-cleavage": 0.23}
{"variant": "UAGCAGGGGGCCACAGCAGAGGCGUUCACGUCGCAGCCCCUGUCAGAUUCAGGUGAACCUGCGAAUUCUGCUGUAUAUCUC", "note": "[A3G A21G U51A U58C]", "self-cleavage": 0.18}
{"variant": "UAGCAGGGGGCCACAGCAGAGGCGUUCACGUCGCAGCCCCUGUCAGAUUCCGGCGAAUCAGCGAAUUCUGCUGUAUAUCUC", "note": "[A3G A21G U51C U54C U60A]", "self-cleavage": 0.37}
{"variant": "UAGCAGGGGGCCACAGCAGAGGCGUUCACGUCGCAGCCCCUGUCAGAUUCUGGUGAACCUGCGAGUUCAGCUGUAUAUCCC", "note": "[A3G A21G U58C A65G U69A U80C]", "self-cleavage": 0.09}
{"variant": "UAGCAGGGGGCCACAGCAGAGGCGUUCACGUCGCAGCCCCUGUCAGAUUCUGGUGAAUCCGCGAAUCCUGCUGUAUAUCUC", "note": "[A3G A21G U60C U67C]", "self-cleavage": 0.09}
{"variant": "UAGCAGGGGGCCACAGCAGAUGCGUCCACGUCGCAGCCCCUGUCAGAUUCUGGUGAAUCUGCGAGUUCUGCUGUAUAUAUC", "note": "[A3G A21U U26C A65G C79A]", "self-cleavage": 0.06}
{"variant": "UAGCAGGGGGCCACAGCAGAUGCGUUCACGACGCAGCCCCUGUCAGACUCUGGUGAAUCUGCGAAUCCUGCUGUAUAUCUC", "note": "[A3G A21U U31A U48C U67C]", "self-cleavage": 0.15}
{"variant": "UAGCAGGGGGCCACAGCAGAUGCGUUCACGUCGCAGCCCCCGUCAGAUUCUGGUGAAUCUGCGAAUUCUGCUGUAUAUCUC", "note": "[A3G A21U U41C]", "self-cleavage": 0.43}
{"variant": "UAGCAGGGGGCCACAGCAGAUGCGUUCACGUCGCAGCCCCUGUCAGAUUCUGGUGAAUCUGCGAACUCUGCUGUAUGUCUC", "note": "[A3G A21U U66C A77G]", "self-cleavage": 0.1}
{"variant": "UAGCAGGGGGCCACAGCAGAAGCGUUCCCGUCGCAGCCCAUGUCAGACUCAGGUGAAUCUGCGAAUUCUGCUGUAUAUCUC", "note": "[A3G A28C C40A U48C U51A]", "self-cleavage": 0.09}
{"variant": "UAGCAGGGGGCCACAGCAGAAGCGUUCCCGUCGCAGCCCCUGUCAGAUUCUGGUGAAUUUACGAAUUCCGCUGUAUAUCUC", "note": "[A3G A28C C59U G61A U69C]", "self-cleavage": 0.09}
{"variant": "UAGCAGGGGGCCACAGCAGAAGCGUUCCCGUCGCAGCCCCUGUCAGAUUCUGGAGAAUCUGCGAAUUCUGCUGUAUAUCUC", "note": "[A3G A28C U54A]", "self-cleavage": 0.63}
{"variant": "UAGCAGGGGGCCACAGCAGAAGCGUUCCCGUCGCAGCCCCUGUCAGAUUCUGGUGAAUCUGCGAAUUCAGCUGUAUAUCUC", "note": "[A3G A28C U69A]", "self-cleavage": 0.11}
{"variant": "UAGCAGGGGGCCACAGCAGAAGCGUUCGCGUCGCGGCCCCUGUCAGAUUCUGGUGUAUCUGCGAAUUCUGCUGUAUAUCUC", "note": "[A3G A28G A35G A56U]", "self-cleavage": 0.96}
{"variant": "UAGCAGGGGGCCACAGCAGAAGCGUUCGCGUCGCUGCCCCUGUCAGAUUCUGGUGAAUCCGCGAAUUCUGCUGUAUAUCUC", "note": "[A3G A28G A35U U60C]", "self-cleavage": 0.23}
